Data as given in PubChem BioAssay AID624417 (National Center for Advancing Translational Sciences (NCATS), 2012).
Out of some 410,000 compounds screened, about 6,400 (1.6%) were called active. This list was built around the results that the source calls inconclusive (neither active nor inactive); the mix of calls is not that of the screen. The call rests on the fitted dose curve; in most records, active means well fitted inhibition curve with a large enough effect; inconclusive means small, poorly fitted or top-dose-only effect; inactive means no such curve, though single readings can be large or run the other way. No potency is given beside an inconclusive call; the fits are too rough.

The compounds below were run against Glucagon-like peptide 1 receptor (Homo sapiens) (UniProt P43220) (assay: qHTS of GLP-1 Receptor Inverse Agonists (Inhibition Mode)). Details: HEK293 GLP-1R CRE-luciferase, luminescence, 24 h, GLP-1R form is constitutively active; series mostly up to 38.3 µM.
UniProt P43220, sequence (P43220 whole entry, looked up): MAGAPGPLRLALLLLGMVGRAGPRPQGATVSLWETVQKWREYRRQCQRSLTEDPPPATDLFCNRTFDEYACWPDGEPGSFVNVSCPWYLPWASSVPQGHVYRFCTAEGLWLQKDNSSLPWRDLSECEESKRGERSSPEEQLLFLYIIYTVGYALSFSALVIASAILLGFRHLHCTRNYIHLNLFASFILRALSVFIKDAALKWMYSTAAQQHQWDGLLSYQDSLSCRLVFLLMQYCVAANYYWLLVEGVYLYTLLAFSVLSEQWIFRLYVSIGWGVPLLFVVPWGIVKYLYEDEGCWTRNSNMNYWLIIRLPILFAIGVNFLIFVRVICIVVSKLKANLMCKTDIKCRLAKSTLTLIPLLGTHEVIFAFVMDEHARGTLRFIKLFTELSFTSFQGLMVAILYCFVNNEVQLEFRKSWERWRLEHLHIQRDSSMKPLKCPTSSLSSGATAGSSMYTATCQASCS
Method in brief: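 Stable HEK293 clone (constitutively active GLP-1R + cAMP-response luciferase); 200 cells/uL plated, 12 h pre-culture, compound 24 hr, 37 deg C/5% CO2; detection reagent 12 min RT; luminescence.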
Further: nearly all actives have a fitted effect of over 55% in size.
Potency means the concentration at half of the fitted maximal effect; tags describe the fitted curve by direction and shape.

Compound | Potency
CC(=O)C1=C(c2ccccc2)NC(=S)NC1c1cc(Cl)c(OC(C)C)c(Cl)c1 (centres undefined) | inconclusive [inhibitor, single point]
COC(=O)c1c(NC(=O)C(C)C)sc2c1CCN(Cc1ccccc1)C2 | inconclusive [inhibitor, single point]
C/C(=N\NC(=S)Nc1ccccc1C)C1Cc2ccccc2C(=O)O1 (centres undefined) | inconclusive [inhibitor, single point]
O=C(c1cc(-c2ccc(Cl)cc2Cl)on1)N1CCN(C(=O)c2ccco2)CC1 | inactive
CCOC(=O)c1c(NC(=O)CSc2nnnn2C)sc(C)c1-c1ccc(C)cc1 | inconclusive [inhibitor, single point]
COc1cccc(C(=O)NCCC2=CCCCC2)c1 | inconclusive [inhibitor, single point]
CCOC(=O)c1csc(NC(=O)c2cc(OC)c(OC)c(OC)c2)n1 | inconclusive [inhibitor, partial curve, poor fit]
CN(C(=O)CSc1nnc(COc2ccccc2)o1)c1ccccc1 | inactive
O=S(=O)(c1ccc(Cl)cc1)c1nc(-c2ccco2)oc1SCc1ccccc1F | inconclusive [inhibitor, single point]
O=C(OCC(=O)N1CCCCCC1)c1ccc(Cl)c(S(=O)(=O)N2CCCC2)c1 | inconclusive [inhibitor, partial curve, poor fit]
CCOC(=O)c1cnn(-c2nc3c(C)cccc3s2)c1C(F)(F)F | inactive
COc1ccc(N2CC(C)Cn3c2nc2c3c(=O)n(CCN3CCOCC3)c(=O)n2C)cc1 (centres undefined) | inactive
CCN(C(=O)CSc1nc2ccccc2n1CC(C)C)c1c(N)n(Cc2ccccc2)c(=O)[nH]c1=O | inconclusive [inhibitor, single point]
COc1cccc(OCCOc2c(OC)cccc2OC)c1 | inconclusive [inhibitor, single point]
O=C(COc1ccccc1)Nc1cccc(-c2nnc(-c3ccccc3)o2)c1 | inconclusive [inhibitor, single point]
CCOc1ccc([N+](=O)[O-])cc1CNC1CCCCCCC1 | inconclusive [inhibitor, partial curve, poor fit]
Cc1c(C)n(Cc2ccc(F)cc2)c2ccc(C(=O)NCCN3CCOCC3)cc12 | inconclusive [inhibitor, partial curve, poor fit]
CSc1nc2ccccc2cc1/C=C(\C#N)c1ccc(Cl)cc1Cl | inconclusive [inhibitor, partial curve, poor fit]
O=C(c1cc(-c2cccc(Br)c2)nc2ccccc12)N1CCCC1 | active: 10 µM
Cc1cc(NCCCCCCCNc2cc(C)nc3cc([N+](=O)[O-])ccc23)c2ccc([N+](=O)[O-])cc2n1 | inconclusive [inhibitor, single point]
Cc1cc(Br)cn2c(Cc3cccc(F)c3)c(C3CCCCC3)nc12 | inconclusive [inhibitor, partial curve, poor fit]
O=C(c1ccc2c(c1)N(Cc1ccccc1)C(=O)c1ccccc1S2(=O)=O)N1CCc2ccccc21 | inactive

Compound | Potency
COc1ccc(C(=O)Nc2ccc(C)cn2)cc1S(=O)(=O)N1CCCc2ccccc21 | inconclusive [inhibitor, partial curve, poor fit]
Cc1c(CCOC(=O)c2ccc([N+](=O)[O-])cc2)sc[n+]1CC(=O)c1ccccc1 | inactive
CCOC(=O)c1[nH]c2ccc(OCC)cc2c1NC(=O)CN1CCN(c2ccccc2)CC1 | inactive
CCOc1ccc(Cl)cc1-c1cc(C(=O)NCC2CCCCC2)[nH]n1 | inconclusive [inhibitor, single point]
COc1ccc(-c2nc3ccccn3c2CN2CCN(c3ccccc3F)CC2)cc1 | inconclusive [inhibitor, single point]
CCN(Cc1ccc(C#CCCO)cc1)CC1CCCN(CCc2cccc(OC)c2)C1 (centres undefined) | inconclusive [inhibitor, partial curve, poor fit]
C/C(CC(=O)Nc1ccc(C)c(Cl)c1)=N\NC(=O)Cc1cccs1 | inconclusive [inhibitor, partial curve, poor fit]
COc1cc2c3c(c1)C(C)=CC(C)(C)N3C(=O)C2=O | inconclusive [inhibitor, single point]
CC(CNc1ccc([N+](=O)[O-])c2cccnc12)Nc1c([N+](=O)[O-])cc(C(F)(F)F)cc1[N+](=O)[O-] (centres undefined) | inconclusive [inhibitor, partial curve]
CCOc1ccc(CNc2nc3ccccc3n2CCN2CCOCC2)cc1 | inconclusive [inhibitor, single point]
COc1ccc(CNC(=O)CC(c2ccc(OC)cc2)N2Cc3ccccc3C2=O)cc1 (centres undefined) | inactive
Cc1ccccc1-c1cc(-c2ccccc2O)n[nH]1 | inconclusive [inhibitor, partial curve, poor fit]
COCCn1c(-c2ccc(OC(F)(F)C(F)C(F)(F)F)cc2)nc2c1c(=O)[nH]c(=O)n2CC(C)C (centres undefined) | inconclusive [inhibitor, partial curve, poor fit]
COc1cc2[nH]c(=S)nc(NC3CCCCCC3)c2cc1OC | inconclusive [inhibitor, single point]
Cc1ccc(CSc2nnc(-c3ccco3)o2)cc1 | inactive
CC(=O)c1ccc(NC(=O)C2CCN(S(=O)(=O)c3cccs3)CC2)cc1 | inactive
Cc1ccc(-c2ccccc2NC(=O)CS(=O)CC(=O)Nc2ccc(C)c(Cl)c2)o1 (centres undefined) | inconclusive [inhibitor, single point]
Cc1ccc(-n2cc(CNCCc3ncc(C)[nH]3)c(-c3ccc(F)cc3)n2)cc1 | inconclusive [inhibitor, partial curve, poor fit]
CN1CCN(c2nc3c(c(=O)[nH]c(=O)n3C)n2Cc2cccc(Br)c2)CC1 | inactive
Cc1cccc(S(=O)(=O)NC(=O)C2(C)CCN2C(=O)C2(c3ccc(Cl)cc3)CC2)c1 (centres undefined) | inconclusive [inhibitor, single point]
COc1ccc(N(Cc2ccccc2)C(=O)CSc2nnc(Cn3nnc4ccccc43)o2)cc1 | inconclusive [inhibitor, partial curve, poor fit]
NS(=O)(=O)c1ccc(CCNC(=O)COC(=O)CC(c2ccccc2)c2ccccc2)cc1 | inconclusive [inhibitor, partial curve, poor fit]

Compound | Potency
CCOc1nc(NCc2ccco2)nc(Nc2ccc(OC)cc2)n1 | inconclusive [inhibitor, single point]
CCOc1ccc(/C=N/NC(=O)NC23CC4CC(CC(C4)C2)C3)cc1O | inconclusive [inhibitor, partial curve]
O=C(C1=C[C@H](c2ccc3c(c2)OCO3)C[C@H](OCc2ccc(CO)cc2)O1)N1CCN(Cc2ccc3c(c2)OCO3)CC1 | inconclusive [inhibitor, single point]
O=C(OCc1cn([C@H]2C[C@H](c3ccc(Cl)cc3)N(Cc3cccs3)C[C@@H]2O)nn1)c1ccccc1 | inconclusive [inhibitor, single point]
COC(=O)c1ccccc1NC(=O)c1cccc(COc2ccccc2Cl)c1 | inconclusive [inhibitor, partial curve]
OCCCn1c(-c2ccc(F)cc2)csc1=Nc1ccc(F)cc1 | inconclusive [inhibitor, partial curve, poor fit]
O=C(CS(=O)(=O)c1cccc2nsnc12)NCc1ccccc1 | inactive
Cc1ccc2c(c1)[nH]c1c(=O)n(CCN3CCCCC3)cnc12 | inactive
S=C(NCc1ccccc1)N1CCN(c2cccc(Cl)c2)CC1 | inconclusive [inhibitor, single point]
COc1cc(NC(=O)C(Cc2ccccc2)NS(=O)(=O)c2cccs2)cc(OC)c1 (centres undefined) | inactive
Cc1noc(/C=C/c2ccccc2F)c1S(=O)(=O)N1CCC(C(=O)NCC(C)c2ccccc2)CC1 (centres undefined) | inactive
CCN(CC)C(=O)CN(c1cc2c(cc1OC)oc1ccccc12)S(=O)(=O)c1ccc(C)cc1 | inconclusive [inhibitor, partial curve, poor fit]
COc1ccc(C(=O)COC(=O)[C@@H](NS(=O)(=O)c2ccccc2)C(C)C)cc1 | inactive
O=C1C=CC(=O)N1Nc1ccc(Br)cc1 | inactive
COc1cc(OC)c(NC2=C(c3ccc(C(F)(F)F)cc3)C(=O)c3ccccc32)cc1Cl | inactive
O=C(Cn1c(=O)nc(-c2ccccc2)c2ccccc21)N1CCN(c2ccc(F)cc2)CC1 | inactive
CC(C)(C)OC(=O)N1CCCC(C(=O)Nc2cccc(C(=O)NCCCCc3ccccc3)c2)C1 (centres undefined) | inconclusive [inhibitor, single point]
C=C1C(=O)C=C2CN(C(=O)c3ccccc3)[C@@](Cc3ccc(F)cc3)(C(=O)OC)[C@@H]12 | inconclusive [inhibitor, partial curve, poor fit]
C(=N\Nc1nc2ccccc2s1)/c1ccc2c(c1)OCO2 | inconclusive [inhibitor, single point]
CCCCn1nnnc1C(c1ccccc1OC(F)(F)F)N1CCN(C/C=C/c2ccccc2)CC1 (centres undefined) | inconclusive [inhibitor, single point]
